{
  "source": "paper PMC4336329",
  "about": "(PLoS ONE, 2015)",
  "note": "The whole screen tested about 310,000 compounds, of which about 2,200 (0.71%) showed an effect of 50% or more. The effect is printed as a negative number. This is one part of the list.",
  "data": [
    {"biological_target": "human ether-à-go-go-related gene (hERG) potassium channel (human, UniProt Q12809)", "sequence (Q12809 whole entry, looked up)": "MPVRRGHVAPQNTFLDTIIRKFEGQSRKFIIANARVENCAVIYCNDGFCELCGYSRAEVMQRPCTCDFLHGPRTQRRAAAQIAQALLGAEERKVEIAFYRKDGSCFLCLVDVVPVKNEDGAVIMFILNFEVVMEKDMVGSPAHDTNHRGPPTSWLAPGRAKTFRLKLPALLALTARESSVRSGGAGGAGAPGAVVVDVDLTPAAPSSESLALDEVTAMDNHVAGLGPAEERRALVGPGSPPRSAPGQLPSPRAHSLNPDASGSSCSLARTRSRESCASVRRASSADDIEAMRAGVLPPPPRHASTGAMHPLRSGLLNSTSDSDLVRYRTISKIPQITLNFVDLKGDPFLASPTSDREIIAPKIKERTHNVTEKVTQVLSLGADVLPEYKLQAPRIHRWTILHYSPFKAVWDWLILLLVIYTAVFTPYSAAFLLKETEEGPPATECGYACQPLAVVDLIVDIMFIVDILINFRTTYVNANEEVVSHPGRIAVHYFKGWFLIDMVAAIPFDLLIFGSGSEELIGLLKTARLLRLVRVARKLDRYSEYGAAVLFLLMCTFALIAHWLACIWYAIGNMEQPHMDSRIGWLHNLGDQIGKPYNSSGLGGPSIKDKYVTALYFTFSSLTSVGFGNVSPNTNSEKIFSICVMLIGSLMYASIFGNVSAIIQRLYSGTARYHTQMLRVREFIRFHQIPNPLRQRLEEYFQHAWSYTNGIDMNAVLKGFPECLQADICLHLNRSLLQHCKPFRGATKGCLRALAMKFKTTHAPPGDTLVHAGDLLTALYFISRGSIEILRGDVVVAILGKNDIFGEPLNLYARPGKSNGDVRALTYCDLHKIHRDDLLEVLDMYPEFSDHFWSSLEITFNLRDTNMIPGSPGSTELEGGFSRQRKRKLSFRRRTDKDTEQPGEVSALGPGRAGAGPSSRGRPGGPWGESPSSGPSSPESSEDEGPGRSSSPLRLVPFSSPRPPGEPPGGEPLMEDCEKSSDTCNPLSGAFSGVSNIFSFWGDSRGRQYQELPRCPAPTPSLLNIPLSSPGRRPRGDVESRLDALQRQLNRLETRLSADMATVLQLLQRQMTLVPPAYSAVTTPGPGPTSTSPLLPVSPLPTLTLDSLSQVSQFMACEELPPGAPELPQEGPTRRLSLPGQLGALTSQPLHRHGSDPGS", "assay": "primary screen, population patch clamp on CHO cells stably expressing hERG", "units": {"hERG current change (%, negative = inhibition) at 1uM": "%"}, "values": [
      {"molecule": "COc1ccc(NC(=O)C2Cc3cccc(OC)c3O/C2=N\\O)cc1", "note": "(stereo not drawn)", "hERG current change (%, negative = inhibition) at 1uM": 16.5},
      {"molecule": "Fc1ccccc1N1CCN(Cc2cccnc2)CC1", "hERG current change (%, negative = inhibition) at 1uM": 5.09},
      {"molecule": "COc1ccc(NC(=S)NN2C(C)CCCC2C)cc1", "note": "(stereo not drawn)", "hERG current change (%, negative = inhibition) at 1uM": 9.86},
      {"molecule": "COc1cccc(/C=N/NC(=O)c2c(C)nc3ccc(Br)cn23)c1", "hERG current change (%, negative = inhibition) at 1uM": -3.36},
      {"molecule": "Cc1ccc(-c2noc(CCC(=O)NCCCN3CCN(c4ccc(F)cc4)CC3)n2)cc1", "hERG current change (%, negative = inhibition) at 1uM": -20.6},
      {"molecule": "CC1CCCN(CCCOc2ccc(Cl)cc2Br)C1.O=C(O)C(=O)O", "note": "(stereo not drawn)", "hERG current change (%, negative = inhibition) at 1uM": -30.3},
      {"molecule": "Cc1cc(C(=O)NN=C2CCCCCCC2)c2ccccc2n1", "hERG current change (%, negative = inhibition) at 1uM": 5.95},
      {"molecule": "Nc1nc(N)c(N=Nc2ccc(C(=O)O)cc2)c(N)n1", "hERG current change (%, negative = inhibition) at 1uM": 8.04},
      {"molecule": "Cc1c(C(=O)NNC(=O)c2ccccc2O)oc2ccc(Br)cc12", "hERG current change (%, negative = inhibition) at 1uM": 7.49},
      {"molecule": "Cc1nc2ccc(S(=O)(=O)NCC(=O)NCc3ccc(Cl)cc3)cc2s1", "hERG current change (%, negative = inhibition) at 1uM": 16.2},
      {"molecule": "Cc1cc(OCc2nn[nH]n2)c2c(C)c(CC(=O)O)c(=O)oc2c1", "hERG current change (%, negative = inhibition) at 1uM": 14.3},
      {"molecule": "CCCCNC(=S)NNC(=O)c1ccoc1C", "hERG current change (%, negative = inhibition) at 1uM": -1.68},
      {"molecule": "Cc1cc(C)c2c(CC(=O)NNC(=O)c3ccccc3)coc2c1", "hERG current change (%, negative = inhibition) at 1uM": 16.3},
      {"molecule": "CS(=O)(=O)N(CC(=O)N1CCCC1)c1cc(Cl)ccc1Cl", "hERG current change (%, negative = inhibition) at 1uM": 17.3},
      {"molecule": "CCC1CCc2c(sc(NC(=O)c3cccnc3)c2C(N)=O)C1", "note": "(stereo not drawn)", "hERG current change (%, negative = inhibition) at 1uM": 13.7},
      {"molecule": "C/C(=N\\Nc1nc(N2CCCCC2)nc(N2CCOCC2)n1)c1cccs1", "hERG current change (%, negative = inhibition) at 1uM": 15.7},
      {"molecule": "Cc1ccc(S(=O)(=O)N2CCC(C(=O)OCc3c(C)noc3C)CC2)cc1C", "hERG current change (%, negative = inhibition) at 1uM": -3.32},
      {"molecule": "CC(C)(C)NC(=O)CN(C(=O)c1csnn1)c1cccc2c1CCCC2", "hERG current change (%, negative = inhibition) at 1uM": 5.8},
      {"molecule": "O=C(Nc1ccc2c(c1)OCO2)C(c1ccccc1)N1CCC2(CC1)OCCO2", "note": "(stereo not drawn)", "hERG current change (%, negative = inhibition) at 1uM": 6.28},
      {"molecule": "CC(=O)N1CCc2cc(C(=O)CN3CCCN(Cc4ccc(F)cc4)C3)ccc21", "hERG current change (%, negative = inhibition) at 1uM": 9.22},
      {"molecule": "CCN1C(=O)[C@H]2[C@@H](c3ccc(SC4CCCCC4)c(OC)c3)N3CCCC[C@@]3(C(=O)OC)[C@H]2C1=O.O=C(O)C(F)(F)F", "hERG current change (%, negative = inhibition) at 1uM": 12.9},
      {"molecule": "CCCC(=O)Nc1nnc(SCC(=O)Nc2ccc3c(c2)OCO3)s1", "hERG current change (%, negative = inhibition) at 1uM": 6.3},
      {"molecule": "C/C(=N\\NC(=S)Nc1cc(S(=O)(=O)N2CCOCC2)ccc1Cl)c1ccc(N2CCOCC2)cc1", "hERG current change (%, negative = inhibition) at 1uM": 10.9},
      {"molecule": "CCCCCCCCC(=O)NNC(=O)c1c(O)c2ccccc2n(CCC)c1=O", "hERG current change (%, negative = inhibition) at 1uM": 13.3},
      {"molecule": "CCc1ccc(/C=C2/SC(=S)N(CC(=O)Nc3nc4ccccc4s3)C2=O)cc1", "hERG current change (%, negative = inhibition) at 1uM": 10.7},
      {"molecule": "Cc1nc(C)c(C(=O)N(c2ccc(C)c(C)c2)C(C(=O)NCc2ccco2)c2ccccc2)s1", "note": "(stereo not drawn)", "hERG current change (%, negative = inhibition) at 1uM": -0.491},
      {"molecule": "COCCNC(=O)c1ccccc1NC(=O)C1COc2ccccc2O1", "note": "(stereo not drawn)", "hERG current change (%, negative = inhibition) at 1uM": 8.05},
      {"molecule": "Cc1cc(C)c2c(CCl)cc(=O)oc2c1", "hERG current change (%, negative = inhibition) at 1uM": 9.68},
      {"molecule": "COc1ccc(C(=O)c2ccc(CC#N)s2)cc1", "hERG current change (%, negative = inhibition) at 1uM": 10.2},
      {"molecule": "CCOc1ccc2[nH]c(=O)c(CN(CCCO)C(C)=O)cc2c1", "hERG current change (%, negative = inhibition) at 1uM": -0.692},
      {"molecule": "CCOC(=O)Cn1cncc1-c1ccc([N+](=O)[O-])cc1", "hERG current change (%, negative = inhibition) at 1uM": 15.6},
      {"molecule": "CCc1ccc(NC(=O)CS(=O)CC(=O)Nc2ccc(-n3cnnn3)c(C)c2)cc1", "note": "(stereo not drawn)", "hERG current change (%, negative = inhibition) at 1uM": 10.3},
      {"molecule": "c1ccc(-c2nnc(CN3CCN(c4ccccc4)CC3)o2)cc1", "hERG current change (%, negative = inhibition) at 1uM": 8.15},
      {"molecule": "COc1cccc(-c2cc3c(-n4cccc4)ncnc3o2)c1", "hERG current change (%, negative = inhibition) at 1uM": 4.88},
      {"molecule": "CNc1nc2[nH]c(=O)c3c(c2s1)OC(N)=C(C#N)C3c1cccc(F)c1", "note": "(stereo not drawn)", "hERG current change (%, negative = inhibition) at 1uM": 14.2},
      {"molecule": "C/C(=N/NC(=O)c1cc(Cl)ccc1O)C12CC3CC(CC(C3)C1)C2", "hERG current change (%, negative = inhibition) at 1uM": 8.59},
      {"molecule": "COc1ccc(C2(O)CCN(CC(=O)Nc3nccs3)CC2)c(OC)c1", "hERG current change (%, negative = inhibition) at 1uM": -12.7},
      {"molecule": "CCOC(=O)C(C)Oc1ccc2c(CC)cc(=O)oc2c1C", "note": "(stereo not drawn)", "hERG current change (%, negative = inhibition) at 1uM": 0.789},
      {"molecule": "Cc1ccc(NC(=O)C(=O)NCCCN2CCOCC2)c(C)c1", "hERG current change (%, negative = inhibition) at 1uM": 4.82},
      {"molecule": "O=C(CSc1nc2ccc(Cl)cc2[nH]1)NCCc1ccc(Cl)cc1", "hERG current change (%, negative = inhibition) at 1uM": 11.7},
      {"molecule": "COC(=O)c1ccccc1S(=O)(=O)N1CCC(c2nc3ccccc3o2)CC1", "hERG current change (%, negative = inhibition) at 1uM": -6.04},
      {"molecule": "CCN(CC)C(=O)CCc1nnc(CCc2c[nH]c3ccccc23)o1", "hERG current change (%, negative = inhibition) at 1uM": 6.15},
      {"molecule": "Cc1cc(C)cc(N(C(=O)CNC(=O)c2ccco2)C(C(=O)NC2CCCC2)c2cccnc2)c1", "note": "(stereo not drawn)", "hERG current change (%, negative = inhibition) at 1uM": -0.0692},
      {"molecule": "Cc1ccnn1C(C)C(=O)O", "note": "(stereo not drawn)", "hERG current change (%, negative = inhibition) at 1uM": 13.4},
      {"molecule": "O=C(CN1CCN(c2ccc(O)cc2)CC1)Nc1ccc(SC(F)F)cc1", "hERG current change (%, negative = inhibition) at 1uM": -78.4}
    ]}
  ]
}
